Test results taken from PMC12136788.
Some of the results follow.

B1: chr4:48579112:48579224:-|CDS|ENSG00000075539|unk|FALSE|bound_elsewhere (ssRNA)
RNA: GGGAGUUCUACAGUCCGACGAUCCUCUAUUGCCCUAGCUCGAUAGAUUUACAAACUUUAGCAGAAUGGAACUCUUCUCCUAUUAGCCACCAGUUUGAUGUGAUUAGUCCAUCACAUAUAUGGAUAUUUGCACAUGUGACCCAACAACAGAGGAUUGAGCAUCA
B2: ENSG00000096384:stop:overlap|stop_codon|ENSG00000096384|stop_codon|NA|stop_codon (ssRNA)
RNA: GGGAGUUCUACAGUCCGACGAUCCUGAUGAGAUCCCCCCUCUCGAGGGCGAUGAGGAUGCGUCUCGCAUGGAAGAAGUCGAUUAGGUUAGGAGUUCAUAGUUGGAAAACUUGUGCCCUUGUAUAGUGUCCCCAUGGGCUCCCACAACAGAGGAUUGAGCAUCA
B3: chr10:27170558:27170670:+|CDS|ENSG00000120539|unk|FALSE|unique (ssRNA)
RNA: GGGAGUUCUACAGUCCGACGAUCCUUAUGUGUGAACUCGAUGAAGACUGUGAAAAGAAUAGUAAGAGGGACUACUUAAGUUCUAGUUUUCUAUGUUCUGAUGAUGAUAGAGCUUCUAAAAAUAUUUCUAUGAACUCUGAUUCACAACAGAGGAUUGAGCAUCA
B4: chr19:21059139:21059240:+|3pUTR|ENSG00000118620|unk|FALSE|unique (ssRNA)
RNA: GGGAGUUCUACAGUCCGACGAUCGUAAAAAUGAAAAUAUUUAAUCCAAAAUUAAGUCUAUGUAAAUAUCAGAGAAUUUACUGUAGAAAUAUAUAAGGCACUGAGACUUCAGAUAUUAUACUAAAUCAGAGUGCUGAGUAUAGACAACAGAGGAUUGAGCAUCA
B5: chr8:39103990:39104232:+|3pUTR|ENSG00000168615|msi1|FALSE|unique (ssRNA)
RNA: GGGAGUUCUACAGUCCGACGAUCGUUUUGUCAUUAAGUGUUUAAGUGUUAUUCUGAAUUUUCUACCUUAGUUAUCAUUAAUGUAGUUCCUCAUUGAACAUGUGAUAAUCUAAUACCUGUGAAAACUGACUAAUCAGCUGCCAACAACAGAGGAUUGAGCAUCA
B6: chr12:49323620:49323721:+|CDS|ENSG00000135451|unk|FALSE|unique (ssRNA)
RNA: GGGAGUUCUACAGUCCGACGAUCAUCAUGACCACCCGGCAAGCCACGAAGGAUCCCCUCCUCCGGGGUGUAUCUCCUACCCCUAGCAAGAUUCCGGUACGCUCUCAGAAACGCACGCCUUUCCCCACUGUUACAUCGUGCGCCCAACAGAGGAUUGAGCAUCA
B7: ENSG00000198589:be:win_2101|CDS|ENSG00000198589|bound_else_gene|NA|bound_elsewhere_windowed (ssRNA)
RNA: GGGAGUUCUACAGUCCGACGAUCGUUGCAUUAAUGUCAGAACACCCUAACUCUAUGAUUCCUGCUUUUGACCAAAGGAAUGGGUUACGUGUUAUCUACAAACUUCUGGCAUCGAAAAGUGAAGGAAUCAGGGUACAAGCUCUUCAACAGAGGAUUGAGCAUCA
B8: chr8:143915506:143915607:-|3pUTR|ENSG00000178209|msi1|total|mutant (ssRNA)
RNA: GGGAGUUCUACAGUCCGACGAUCCCCCACACUCACUCCUGAGACCCCUGGCCUCCGGCGUCAGCCUCCAGCCUCUGUUCCCCCCGUAAGUGCCUUCCAUGUCGGCCUCUAACCCCAGGCCCCGAGGACCCAGACCCAGUGGGGCAACAGAGGAUUGAGCAUCA
B9: chr1:43978039:43978149:+|3pUTR|ENSG00000117410|unk|FALSE|unique (ssRNA)
RNA: GGGAGUUCUACAGUCCGACGAUCGGCCGUGCCUCACUUUUAUUUAUUGCUGGUUUUCCUGGGACAGCUGGAGCUGUGUCCCUUAGCCUUUCAGAGGCUUGGUGUUCAGGGCCCUCCCUGCACUCCCCUCUUGCUGCGUGUUGACAACAGAGGAUUGAGCAUCA
B10: chr1:46316673:46316776:+|3pUTR|ENSG00000173660|unk|total|mutant (ssRNA)
RNA: GGGAGUUCUACAGUCCGACGAUCUGUUUCUUAUUUGUGUAACUGUAAGUUCACAUGAACCUCAUGGGUUUGGCUCCGGCUGGCCGCUUCUAUGUAAUUCGCAAUGAUUCCAUCUAAAUAAAAGUUCUAUGAUCUGCAAACCUGCAACAGAGGAUUGAGCAUCA
B11: chr18:35366693:35369214:-|three_prime_utr|ENSG00000186496|control|control|control (ssRNA)
RNA: GGGAGUUCUACAGUCCGACGAUCCAAAGCAUUUACUCAGAGCUAUUUCAGCACAAGGGAAGACACCAGAUGCAAACGCUCCUUAGUACAAAUCAGUGGUCUUAGUAAGCACCAGUCUCCUUUCAAGACUCAUGAAAGCCACAGCAACAGAGGAUUGAGCAUCA
B12: chr2:27433287:27433389:+|CDS|ENSG00000115216|unk|FALSE|unique (ssRNA)
RNA: GGGAGUUCUACAGUCCGACGAUCUUCCAGCAUGUCGGAGGGGGAGUCCCAGACAGUACUUAGCAGUGGCUCAGACCCAAAGGUAGAAUCCUCAUCUUCAGCUCCUGGCCUGACAUCAGUGUCACCUCCUGUGACCUCCACAACCAACAGAGGAUUGAGCAUCA
B13: chr7:101138466:101138856:+|3pUTR|ENSG00000106366|msi1|total|mutant (ssRNA)
RNA: GGGAGUUCUACAGUCCGACGAUCGAGUGGGGGGACAGAGACUCAGAUGAGGACAGAGUGGUUUCCAAUGUGUUCAACCGAUUCCGGAGCAGAAAUGCAAGGGGCUGCAUGACCUACCAGGACAGAACUUUCCCCAAUUACAGGCAACAGAGGAUUGAGCAUCA
B14: chr14:100884374:100884478:-|CDS|ENSG00000254656|unk|total|mutant (ssRNA)
RNA: GGGAGUUCUACAGUCCGACGAUCGAGGAGUCAUGCAACGGUUCACACCAGGCAAGGGGGGAUCCACUCAGUGGAGCAUCUGACCGGAUGAAAGAAGCAUCAGUCAACCCAUCGGGAGCCCGAGAAGAACAAGAGGCUCACACUCAACAGAGGAUUGAGCAUCA
B15: chr12:76029359:76029534:-|3pUTR|ENSG00000139289|msi1|total|mutant (ssRNA)
RNA: GGGAGUUCUACAGUCCGACGAUCAGAAGUUUAAAAAGCUAAAAGUUAAAAAUGGUGUAAUUAUGAAAAUCUAACACUCAAGACCGUUUCUAAAAGGAAAUCAGCCGUUAAGGAUACCUGAUUUCAAAAUAUUUAAAGCAUAACCAACAGAGGAUUGAGCAUCA
B16: chr20:38750096:38750197:+|CDS|ENSG00000101442|unk|total|mutant (ssRNA)
RNA: GGGAGUUCUACAGUCCGACGAUCGCAAAUGAUGUCUGAGCUUCUUUUUGAGUGCUACGGGAUUCCCAAGGUUGCCUAUGGAACCGACAGCCUCUUCAGCUUCUACCACAAUAAGCCAAAGAACUCGAUGUGCAGUGGGCUAAUCAACAGAGGAUUGAGCAUCA
B17: ENSG00000198589:be:win_5851|CDS|ENSG00000198589|bound_else_gene|NA|bound_elsewhere_windowed (ssRNA)
RNA: GGGAGUUCUACAGUCCGACGAUCACUCAACUAAUCCAGAAAAUUAUCAACAUUCUCACAGACAAGCAUGGAGCCUGGGGAAAUUCUGCAGUGAGUCGUCCUCUUGAGUUCUGGCGCCUUGACUACUGGGAAGAUGACUUGCGGCAACAGAGGAUUGAGCAUCA
B18: chr10:128098466:128098636:-|3pUTR|ENSG00000148773|msi1|FALSE|unique (ssRNA)
RNA: GGGAGUUCUACAGUCCGACGAUCUCCUUUCCUUUCUGAAAAUAAAGUUUUGUGCUUUGGAGAAUGACUCGUGAGCACAUCUUUAGGGACCAAGAGUGACUUUCUGUAAGGAGUGACUCGUGGCUUGCCUUGGUCUCUUGGGAACAACAGAGGAUUGAGCAUCA
B19: chr12:79773885:79773986:-|3pUTR|ENSG00000058272|msi1|total|mutant (ssRNA)
RNA: GGGAGUUCUACAGUCCGACGAUCGGUUAUUUAUUCUUUGUAUCUAAAACUGAACAGCUACUGUGCUAUAUUGAUUUUAUUGGCCGUAUUGAGCAGACCUUGUUUCUGCAUGAAACCCGUUGCAAAACCCACUAUUUUGGAAAUCAACAGAGGAUUGAGCAUCA
B20: chr10:25598329:25598431:+|CDS|ENSG00000151025|unk|total|mutant (ssRNA)
RNA: GGGAGUUCUACAGUCCGACGAUCAUCGAUGUUACAGAAGUCUCUCAGUGUCACCGCAAGCGCCAAGGAGAAGACUCUUGGAUCCGCUGGGAAAACCCAAACAGCAGGUGUGGAAGAACGCACUAAAUCCCAGAAACCUUUGCCCAACAGAGGAUUGAGCAUCA
B21: chr12:6347307:6347408:-|3pUTR|ENSG00000111319|msi1|total|mutant (ssRNA)
RNA: GGGAGUUCUACAGUCCGACGAUCGUCUGCUCCUCCUCUUGAACUUGGGUGGGAAACCCCACCCAAAAGCCCCCUUUGUUACUCCGGCAAUUCCCCUUCCCUGACUCCCGAGGGCCCGGGCCCGAGCAGACCCGGGUAAGUAAACAACAGAGGAUUGAGCAUCA
B22: chr14:96489241:96489342:+|3pUTR|ENSG00000140057|unk|FALSE|unique (ssRNA)
RNA: GGGAGUUCUACAGUCCGACGAUCUAAAGUGUAUAAUUCAGUGGCACUAAGUUCAUUCACAAUGAUCUGCAGCCACCACUAUCUAGUCCAGAACUUUCUCAUCACCCCAAAUGGAAACCCAGCACCUAUUAGGCAGUCACGCUCCAACAGAGGAUUGAGCAUCA

The binders below were run against MSI1 full-length (mouse, UniProt Q61474 1-362) (assay: nsRBNS (natural sequence RNA bind-n-seq); RBNS binding buffer (assumed for nsRBNS): 25 mM Tris pH 7.5, 150 mM KCl, 3 mM MgCl2, 0.01% Triton X-100, 500 ug/ml BSA, 20 U/ml SUPERase-In, 4 C; UNK is unkempt and MSI1 is Musashi-1; names of the RNAs are library labels; protein concentration not given here; high values mean tight binding).
Sequence of UniProt Q61474 (Q61474 whole entry): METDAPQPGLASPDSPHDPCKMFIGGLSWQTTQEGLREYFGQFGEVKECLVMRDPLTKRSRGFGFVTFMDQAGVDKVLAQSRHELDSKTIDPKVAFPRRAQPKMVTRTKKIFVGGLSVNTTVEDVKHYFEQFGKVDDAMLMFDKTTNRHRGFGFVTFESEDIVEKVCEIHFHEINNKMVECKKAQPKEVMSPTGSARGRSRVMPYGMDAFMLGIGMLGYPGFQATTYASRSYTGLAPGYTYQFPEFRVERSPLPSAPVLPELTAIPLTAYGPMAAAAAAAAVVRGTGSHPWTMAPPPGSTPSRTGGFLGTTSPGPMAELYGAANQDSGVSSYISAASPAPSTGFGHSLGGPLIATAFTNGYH
Binder B1 has a binding signal of 7.73 enrichment R.
B2 was tested, and the binding signal was 2.86 enrichment R.
B3 showed a binding signal of 0.586 enrichment R.
B4 was tested, and the binding signal was 3.44 enrichment R.
Binder B5 has a binding signal of 1.15 enrichment R.
Work on B6 yielded a binding signal of 0.833 enrichment R.
With B7 the binding signal was 0.41 enrichment R.
Work on B8 yielded a binding signal of 0.681 enrichment R.
B9 gave a binding signal of 0.579 enrichment R.
B10 gave a binding signal of 0.368 enrichment R.
B11 was tested, and the binding signal was 1.07 enrichment R.
With B12 the binding signal was 0.967 enrichment R.
For B13, the binding signal was 0.559 enrichment R.
For B14, the binding signal was 0.506 enrichment R.
With B15 the binding signal was 2.73 enrichment R.
B16 gave a binding signal of 0.312 enrichment R.
Binder B17 has a binding signal of 0.597 enrichment R.
B18 gave a binding signal of 0.327 enrichment R.
Work on B19 yielded a binding signal of 0.795 enrichment R.
Binder B20 has a binding signal of 0.392 enrichment R.
In the case of B21, the binding signal is reported as 0.71 enrichment R.
B22 showed a binding signal of 0.983 enrichment R.
